± gives the standard deviation of the averaged measurements. In all, about 33,000 sequences were measured (“E-score (dimensionless, -0.5 to 0.5)”: median about -0.049, highest 2% from about 0.37 on). The list shows a part of the results.
system: T1, PmTbr T-box DNA-binding domain (GST fusion); assay: PBM E-score of 8-mer (E-score (dimensionless, -0.5 to 0.5)); Tbr is Tbrain of the sea star Patiria miniata (Pm) or the sea urchin Strongylocentrotus purpuratus (Sp); higher = stronger binding preference; most listed sequences are background and not binding sites; details: the construct has about 5 more residues each side
T1 sequence: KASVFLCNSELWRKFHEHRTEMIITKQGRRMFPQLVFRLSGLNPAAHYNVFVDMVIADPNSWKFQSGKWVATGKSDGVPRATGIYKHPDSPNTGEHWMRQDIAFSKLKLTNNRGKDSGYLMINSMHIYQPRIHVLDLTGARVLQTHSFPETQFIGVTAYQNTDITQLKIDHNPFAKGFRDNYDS
How it was run: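 GST-fused Tbr T-box DNA-binding domains (the whole T-box plus about five flanking residues) were expressed in BL21 E. coli at 20 °C and purified by glutathione affinity chromatography. Universal Agilent oligonucleotide arrays were made double-stranded by primer extension, incubated with 200 nM protein in PBS (pH 7.5), then scanned and quantified. Every ungapped 8-mer was scored from probe intensities. The Universal PBM Analysis Suite gave each word an enrichment E-score, averaged over duplicate arrays.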

Sequence | PBM E-score of 8-mer
GTCATCCA | -0.0697 ± 0.046
TATGCATA | -0.225 ± 0.13
ACTTTCCA | 0.132 ± 0.068
CATTTAGA | -0.0146 ± 0.053
CTCAGAGA | -0.262 ± 0.012
TGGTTAAA | -0.0566 ± 0.039
GTGAATAA | 0.232 ± 0.034
AGGACCCT | -0.212 ± 0.034
CGTAAAAA | 0.0578 ± 0.11
AGACACAA | 0.109 ± 0.045
ATGCTTTG | 0.059 ± 0.0019
ATAATTAT | -0.253 ± 0.067
ACCTTTCT | 0.0952 ± 0.074
ATAAATGC | -0.0598 ± 0.0058
CTTGTGCC | -0.0904 ± 0.087
CCTCTACC | -0.098 ± 0.056
ACAGAGGG | -0.0884 ± 0.035
ATCAACCG | -0.152 ± 0.025
CCCCAGGC | -0.14 ± 0.032
ATTGTATC | 0.0415 ± 0.056
CTCACGGA | 0.101 ± 0.029
ACACTGCC | 0.0607 ± 0.029
ATTGGGAC | -0.1674 ± 0.0014
ATCCCACA | 0.225 ± 0.0026
ATTCAGCC | -0.17 ± 0.0028

Sequence | PBM E-score of 8-mer
ACGGGGTC | -0.11 ± 0.008
ACGGCGCA | -0.00829 ± 0.17
CGAAAGAC | -0.0547 ± 0.025
GGTGTAAC | 0.363 ± 0.027
ACATGAGG | 0.00911 ± 0.069
CATTAGTC | -0.315 ± 0.087
ACCGTTGG | 0.145 ± 0.016
CTTTTACA | 0.169 ± 0.025
GCAGGCCA | -0.254 ± 0.083
AGGGTCTA | -0.0889 ± 0.0069
GAATATGA | -0.0756 ± 0.03
GAAAGAGC | 0.0399 ± 0.044
CCCAAACG | -0.119 ± 0.045
CCCACGGC | 0.057 ± 0.0049
ATGCACGG | -0.169 ± 0.018
CGCTTCAG | -0.0405 ± 0.068
GCACCTCA | 0.35 ± 0.037
CATCTTAA | 0.043 ± 0.13
AAATGACG | 0.0901 ± 0.0066
CGAGGTAG | -0.11 ± 0.044
AACCTGAG | 0.0264 ± 0.17
CTCAACGC | 0.0473 ± 0.082
AGTGCATC | -0.183 ± 0.14
ACAACCCA | 0.0479 ± 0.054
AAGGCGGA | -0.00558 ± 0.018

Sequence | PBM E-score of 8-mer
CGTCGACG | 0.0145 ± 0.048
GTAGTTGA | 0.0256 ± 0.03
AAGGGAGG | -0.2389 ± 0.0022
ACGTTATA | 0.0261 ± 0.051
CATGCGGA | -0.111 ± 0.045
CCAGGATA | -0.172 ± 0.039
AGTGCACC | -0.108 ± 0.086
ACACACAG | 0.2395 ± 0.0016
GTCTACTA | -0.136 ± 0.019
ACAACGGC | 0.126 ± 0.018
ATGATGAG | -0.246 ± 0.02
CGCACCCA | 0.326 ± 0.04
CAGCACGC | 0.143 ± 0.092
ACCCTCGC | 0.119 ± 0.028
CATGAGAG | -0.0683 ± 0.043
ATACAATA | -0.204 ± 0.073
GTGGATCA | -0.0755 ± 0.025
AGGCGTTG | 0.369 ± 0.0053
CTGATGAC | 0.149 ± 0.0035
ACCAATCT | -0.135 ± 0.066
GCGGATGA | -0.0593 ± 0.026
AAGCAACT | -0.123 ± 0.016
CTATCGCC | 0.261 ± 0.037
AACCTCCC | -0.0756 ± 0.12
CGGTGATA | 0.187 ± 0.0068

Sequence | PBM E-score of 8-mer
GGAATTTA | -0.0365 ± 0.0034
CAGATTCC | -0.0266 ± 0.064
CGCTAATC | 0.107 ± 0.016
CCGTTAGC | 0.27 ± 0.018
AAAAAACG | 0.0611 ± 0.07
AAATCGTG | 0.21 ± 0.036
TACCGCGA | 0.0973 ± 0.005
GTGAAAGA | 0.27 ± 0.031
CTGACCTC | -0.099 ± 0.0038
AGTAGTTG | 0.0125 ± 0.064
CACCTCAC | 0.4504 ± 0.0025
ATCAGAAG | -0.0178 ± 0.033
AGGCAGCG | -0.0107 ± 0.078
GCCGGACC | -0.209 ± 0.099
CTTGTATC | -0.0802 ± 0.031
TGAGTGAA | -0.029 ± 0.0024
GATGTCCA | -0.225 ± 0.0019
CAAGGAAG | -0.256 ± 0.043
GAGATACC | -0.0262 ± 0.061
GTAGGGCA | -0.299 ± 0.015
ATCCCTTG | -0.0587 ± 0.13
AATCACCC | 0.193 ± 0.0068
GCTGTAAC | -0.0752 ± 0.0097
AGAGGGGC | -0.308 ± 0.083
AAAGATAC | -0.194 ± 0.03

Sequence | PBM E-score of 8-mer
ACCGCCTC | -0.0415 ± 0.022
AAGGTCGC | 0.182 ± 0.048
ACAGATCT | -0.066 ± 0.012
CTATTCAG | -0.0996 ± 0.0059
AAGGCAAC | 0.0723 ± 0.07
ACGGGACA | 0.046 ± 0.0098
CAGATTTA | -0.154 ± 0.024
AAGATCCT | -0.242 ± 0.024
GCCCAAGA | -0.228 ± 0.1
AATTGAGG | -0.164 ± 0.043
ATATATCA | -0.0331 ± 0.07
ACCAAACT | -0.11 ± 0.026
ACCATGAA | -0.0721 ± 0.014
GTGCATAA | -0.0546 ± 0.0058
GTGGTCCA | -0.254 ± 0.0079
CGGGCGCC | -0.106 ± 0.1
ATGCCAGA | -0.187 ± 0.033
AGTTGGCC | -0.152 ± 0.061
GCTTCCAC | 0.109 ± 0.064
CATTCAAC | -0.255 ± 0.034
ATTAGATG | -0.137 ± 0.032
TTAAAGAA | -0.0984 ± 0.037
TAAGGGAA | -0.33 ± 0.043
CATCCGGC | -0.0338 ± 0.017
CCTCGGCC | -0.195 ± 0.031

Sequence | PBM E-score of 8-mer
ACACCCAC | 0.361 ± 0.029
CGTTATAC | -0.0513 ± 0.051
AGTAACTA | -0.0819 ± 0.012
CAAATAAG | 0.00592 ± 0.002
CTTAGTCC | -0.158 ± 0.069
TCACTAGA | 0.0954 ± 0.0055
CGTGTGGA | 0.284 ± 0.0037
TACCGCTA | 0.0729 ± 0.087
TAGCCGAA | -0.0938 ± 0.015
AGAACCGC | 0.0263 ± 0.067
AGACACTC | 0.0979 ± 0.086
CAGTAATG | 0.0609 ± 0.00072
GTCGCCGA | -0.0405 ± 0.038
AACCCGTC | 0.125 ± 0.0017
GCAGTAAC | 0.0357 ± 0.011
ATACTCTA | -0.16 ± 0.032
AAAAACTA | -0.143 ± 0.06
GAGACACA | 0.053 ± 0.046
ACTTCAAC | 0.159 ± 0.083
AGCGACAG | 0.202 ± 0.077
AGCATGGA | -0.118 ± 0.091
CAAAATAG | -0.171 ± 0.042
AAAAGTCT | -0.192 ± 0.081
CATCAAGA | -0.245 ± 0.022
AACGTAAC | -0.219 ± 0.064

Sequence | PBM E-score of 8-mer
TGAATACA | -0.2 ± 0.035
ACTCCCTG | -0.0934 ± 0.096
GGGGGCAA | -0.0812 ± 0.086
CAGACCTC | -0.267 ± 0.013
AAGTCGTA | -0.131 ± 0.11
ATATATCG | -0.0123 ± 0.037
CAGGGCAA | -0.183 ± 0.024
AGTCAACA | 0.269 ± 0.022
GTACAATA | -0.305 ± 0.031
TACGGCGA | -0.141 ± 0.045
AGAGCATC | -0.226 ± 0.1
GGCGGCGA | 0.0111 ± 0.049
CCTATAAC | -0.0211 ± 0.05
CCGAGTAC | -0.109 ± 0.036
ACTTGGCT | -0.171 ± 0.04
AGCTATTC | -0.132 ± 0.065
CACCCGAG | 0.0779 ± 0.017
GGCGCTCA | -0.00054 ± 0.07
CTAACAGA | 0.183 ± 0.008
GATCTCCC | -0.151 ± 0.094
ATGCAGTC | -0.0466 ± 0.011
ACAACAAT | 0.109 ± 0.024
